Laboratory results published in patent US20250326840A1 (QURE BIOTECHNOLOGY SHANGHAI, published 2025).
Like-named read-outs stand apart in the source and are kept apart here. One block for each binder: values may come before it.

Assays:
[1] = molecular target: T1, human PD-L1 on HCC827 cells (human, UniProt Q9NZQ7); assay: FACS on HCC827 cells
T1 construct: whole, on cells; also called HCC827 cells naturally expressing human PD-L1

PD-L1-mouse Fc protein [2] = molecular target: T2, PD-L1-mouse Fc protein (human, UniProt Q9NZQ7 partial chain, limits assumed); assay: competitive ELISA, PD-1 coated, PD-L1-mouse Fc
PD-L1-mouse Fc protein [3] = molecular target: T2, PD-L1-mouse Fc protein; assay: blocking ELISA: QP1138 (PD1-FC) coated, PDL1-mouse FC mixed with the antibody, HRP anti-mouse IgG; blocked partner: PD-1; unit from the x axis Log(Conc.(nM))
PD-L1-his (QPP09) [4] = molecular target: T3, PD-L1-his (QPP09) (human, UniProt Q9NZQ7 partial chain, limits assumed); assay: SPR, Biacore 8K
T3 construct: also called human PD-L1; human PD-L1 recombinant protein

PD-L1-mouse Fc protein [5] = molecular target: T2, PD-L1-mouse Fc protein; assay: competitive ELISA, CD80 coated, PD-L1-mouse Fc
PD-L1-his (QPP09) [6] = molecular target: T3, PD-L1-his (QPP09); assay: SPR, Biacore 8K; remark: listed apart in the source
T3 sequence (Q9NZQ7 19-239 limits assumed): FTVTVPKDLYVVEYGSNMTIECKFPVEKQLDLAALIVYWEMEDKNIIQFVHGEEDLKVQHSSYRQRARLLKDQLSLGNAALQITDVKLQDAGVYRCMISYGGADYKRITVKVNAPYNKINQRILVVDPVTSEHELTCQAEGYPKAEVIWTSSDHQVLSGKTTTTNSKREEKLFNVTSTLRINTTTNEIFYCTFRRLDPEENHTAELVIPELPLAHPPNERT

T2 sequence (Q9NZQ7 19-239 limits assumed): as above

EC50 [1]: 0.119 nM
IC50 (PD-L1-mouse Fc protein [2]): 0.951 nM
IC50 (PD-L1-mouse Fc protein [3]): 0.445 nM
Kd (PD-L1-his (QPP09) [4]): 0.479 nM
koff (PD-L1-his (QPP09) [4]): 0.000411 s⁻¹
kon (PD-L1-his (QPP09) [4]): 858000 M⁻¹ s⁻¹
IC50 (PD-L1-mouse Fc protein [5]): 0.746 nM
Kd (PD-L1-his (QPP09) [6]): 0.479 nM
koff (PD-L1-his (QPP09) [6]): 0.000411 s⁻¹
kon (PD-L1-his (QPP09) [6]): 858000 M⁻¹ s⁻¹
B1: QP3447 (Fc fusion)
chain: [no letters for human IgG1 Fc with C220S L234A L235A K338A (EU numbers)]GGGSGGGGSGGGGSGGGGSEVQLLESGGGLVQPGGSLRLSCAASGFTLDDYAIGWFRQAPGKGREGVSCISKSGETTFFVESVKDRFTISRDNSKNTLYLQMNSLRAEDTAVYYCATGSWCTVGSMSRQFYRQFFHSWGQGTLVTVSS
notes: Anti-PD-L1 nanobody VHH fused to the C-terminus of FC; also called FC-PD-L1VHH; PD-L1 single component control

IC50 (PD-L1-mouse Fc protein [3]): 0.338 nM
Kd (PD-L1-his (QPP09) [4]): 0.261 nM
koff (PD-L1-his (QPP09) [4]): 0.00043 s⁻¹
kon (PD-L1-his (QPP09) [4]): 1.65e+06 M⁻¹ s⁻¹
B2: QP509 (Fc fusion)
chain: EVQLLESGGGLVQPGGSLRLSCAASGFTLDDYAIGWFRQAPGKGREGVSCISKSGETTFFVESVKDRFTISRDNSKNTLYLQMNSLRAEDTAVYYCATGSWCTVGSMSRQFYRQFFHSWGQGTLVTVSS[no letters for human IgG1 Fc with C220S L234A L235A K338A (EU numbers)]
notes: Anti-PD-L1 nanobody VHH fused to the N-terminus of FC; also called PD-L1VHH-FC
